Laboratory results taken from PubChem BioAssay AID485281 (National Center for Advancing Translational Sciences (NCATS), 2010).
Screen size: about 350,000 compounds; about 260 (0.074%) were called active. Inconclusive means that the source gave no clear call. Such entries were picked first, then a sample of the others. Calls come from the whole dose curve; as a rule, active = well fitted inhibition curve with a large enough effect; inconclusive = small, poorly fitted or top-dose-only effect; inactive = no such curve, though single readings can be large or run the other way. Where the call is inconclusive, the potency comes from a doubtful curve fit.

Molecular target: Ferritin light chain (Equus caballus) (UniProt P02791)
Test: qHTS Assay for Identification of Novel General Anesthetics; note: nearly all actives have a fitted effect of over 20% in size
Conditions: apoferritin/1-aminoanthracene competitive binding, fluorescence; series mostly up to 77.5 µM
Outline: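 Apoferritin-based anesthetic binding model; compound displacement of fluorescent 1-AMA measured as endpoint fluorescence after 10 minutes at room temperature, scaled to free-ligand and complex controls.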
Potency is the fitted concentration of half-maximal effect; tags give direction and shape of the fitted curve.

Sequence of UniProt P02791 (P02791 whole entry, looked up): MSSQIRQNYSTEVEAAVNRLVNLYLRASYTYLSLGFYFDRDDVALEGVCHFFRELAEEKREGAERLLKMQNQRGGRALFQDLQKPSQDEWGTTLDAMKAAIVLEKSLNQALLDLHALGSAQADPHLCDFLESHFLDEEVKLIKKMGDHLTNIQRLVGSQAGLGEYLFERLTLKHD

Which Potency does the source give for `O=C(NCc1ccco1)c1c[nH]c2ccc(S(=O)(=O)Nc3ccc(F)cc3F)cc2c1=O` here?
The Potency was inconclusive: 12.6 µM [inhibitor, partial curve].

Which Potency does the source give for `CC(C)(C)c1ccc(S(=O)(=O)c2cnc(SCC(=O)Nc3ccc(F)c(Cl)c3)[nH]c2=O)cc1` here?
Its Potency is inconclusive: 22.4 µM [inhibitor, partial curve, poor fit].

For `CCOc1ccc(NC(=O)Cc2ccc(NC(=O)N3CCCCc4ccccc43)cc2)cc1`, which Potency is on record?
Its Potency is “inactive”.

`O=C1CC(c2ccco2)CC(O)=C1C=Nc1cc(Cl)ccc1O` (centres undefined) was tested. Which Potency did it give?
The Potency was “inactive”.

Which Potency does the source give for `Cc1ccc(CN(Cc2ccco2)C(=O)COc2ccc(Cl)cc2Cl)cc1` here?
Its Potency is “inactive”.

How did the Potency turn out when `COc1ccc(-c2nnc(SCC(=O)NCc3ccccc3)nc2-c2ccc(OC)c(OC)c2)cc1OC` was run?
Its Potency is inconclusive: 39.8 µM [inhibitor, single point].

Which Potency does the source give for `Cc1cc(C)n(CC(O)Cn2c3ccc(Cl)cc3c3cc(Cl)ccc32)c(=O)n1` (centres undefined) here?
The Potency was inconclusive: 15.8 µM [inhibitor, partial curve].

For `COC(=O)c1ccc([C@H]2Nc3ccc(S(=O)(=O)Nc4ccc(C)cc4)cc3[C@H]3C=CC[C@H]32)cc1`, which Potency is on record?
The Potency was inconclusive: 15.8 µM [inhibitor, partial curve].

For `Cc1ccc(Cc2c(C)nc3nc(SCC(=O)NCc4ccco4)nn3c2C)cc1`, which Potency is on record?
The Potency was inconclusive: 35.5 µM [inhibitor, partial curve].

How did the Potency turn out when `Cn1c(SCC(=O)N/N=C/c2ccc([N+](=O)[O-])s2)nnc1-c1ccccc1` was run?
Its Potency is “inactive”.

For `CN(C1CCCCC1)S(=O)(=O)c1ccc(NC(=O)C2CCCCC2)cc1`, which Potency is on record?
Its Potency is “inactive”.

How did the Potency turn out when `COc1ccc(N2C(=O)[C@@H]3[C@H](C2=O)[C@H]2c4ccccc4C=CN2[C@@H]3C(=O)Nc2ccccc2)cc1` was run?
Its Potency is inconclusive: 11.2 µM [inhibitor, partial curve].

`COc1ccc(CCN(C)Cc2ccc(OCc3ccccc3)c(OC)c2)cc1OC` was tested. Which Potency did it give?
Its Potency is inconclusive: 6.31 µM [inhibitor, partial curve].

For `O=C(Cc1ccc(Cl)cc1)c1ccc(O)cc1`, which Potency is on record?
The Potency was inconclusive: 56.2 µM [inhibitor, single point].

With `COc1ccc(NC(=S)NC(NC(=O)c2ccccc2Cl)C(Cl)(Cl)Cl)c([N+](=O)[O-])c1` (centres undefined) as the compound, how does the Potency read?
The Potency was inconclusive: 28.2 µM [inhibitor, single point].

How did the Potency turn out when `COc1ccc(CN(C(=O)CSc2nnc(-c3c[nH]c4ccccc34)o2)c2ccc(F)cc2)cc1OC` was run?
The Potency was “inactive”.

For `CCC1C/C(=C\c2cc(OC)c(OC)cc2OC)C(=O)/C(=C/c2cc(OC)c(OC)cc2OC)C1` (centres undefined), which Potency is on record?
The Potency was inconclusive: 15.8 µM [inhibitor, partial curve, poor fit].

`O=C1CC(c2ccc(Cl)cc2)CC(=O)C1CS(=O)(=O)c1ccccc1` (centres undefined) was tested. Which Potency did it give?
The Potency was inconclusive: 35.5 µM [inhibitor, partial curve].

Which Potency does the source give for `CCN(C(=O)c1cc2c(=O)[nH]c3ccc(C)cc3c2s1)c1ccc(F)cc1` here?
The Potency was “inactive”.

For `O=[N+]([O-])c1cc(S(=O)(=O)C(F)(F)F)ccc1Sc1nc2ccccc2[nH]1`, which Potency is on record?
Its Potency is inconclusive: 39.8 µM [inhibitor, partial curve].

With `Cc1cccc(NC(=S)NNC(=O)c2csc(C(C)C)c2)c1` as the compound, how does the Potency read?
The Potency was inconclusive: 56.2 µM [inhibitor, single point].

`Cc1ccc(S(=O)(=O)NCC(=O)OCc2csc(-c3ccccc3)n2)cc1` was tested. Which Potency did it give?
Its Potency is inconclusive: 39.8 µM [inhibitor, single point].

For `CC(NC(=O)c1ccccc1Cl)C1CC2CCC1C2` (centres undefined), which Potency is on record?
The Potency was inconclusive: 17.8 µM [inhibitor, single point].

`Cc1ccc2ncc(C(=O)Nc3cccc(C(F)(F)F)c3)c(=O)n2c1` was tested. Which Potency did it give?
Its Potency is “inactive”.

`O=C(COC(=O)/C=C/c1cccs1)Nc1cccc(S(=O)(=O)N2CCCC2)c1` was tested. Which Potency did it give?
The Potency was inconclusive: 28.2 µM [inhibitor, partial curve].

Which Potency does the source give for `COc1ccc(CN2C(=O)COc3ccccc32)cc1` here?
The Potency was inconclusive: 39.8 µM [inhibitor, single point].

For `CC(C)N=C1SCC(C)(/C=N/O)S1` (centres undefined), which Potency is on record?
The Potency was inconclusive: 31.6 µM [inhibitor, partial curve].

For `Cc1cc(S(=O)(=O)NCCc2ccccc2)ccc1-n1cnnn1`, which Potency is on record?
The Potency was inconclusive: 39.8 µM [inhibitor, partial curve].

`CC1=C(C(=O)OCc2ccccc2)C(c2cccc(Br)c2)NC(=O)N1` (centres undefined) was tested. Which Potency did it give?
Its Potency is inconclusive: 50.1 µM [inhibitor, single point].

How did the Potency turn out when `Cc1ccc(S(=O)(=O)c2c(Nc3ccccc3)sc(C(=O)c3ccc4c(c3)OCO4)c2N)cc1` was run?
Its Potency is “inactive”.

With `Cc1oc(-c2ccccc2F)nc1CSCC(=O)NC1CCC(C)CC1` (centres undefined) as the compound, how does the Potency read?
Its Potency is inconclusive: 50.1 µM [inhibitor, single point].

Which Potency does the source give for `O=[N+]([O-])c1cc(-c2ccn[nH]2)ccc1Cl` here?
The Potency was inconclusive: 15.8 µM [inhibitor, partial curve].

`CCn1c(SCC(=O)Nc2ccc(C)cc2)nc2sc3c(c2c1=O)CCN(C)C3` was tested. Which Potency did it give?
Its Potency is inconclusive: 31.6 µM [inhibitor, partial curve].

`C/C(=N/NC(=O)CNC(=O)C1COc2ccccc2O1)c1ccc([N+](=O)[O-])cc1` (centres undefined) was tested. Which Potency did it give?
Its Potency is inconclusive: 35.5 µM [inhibitor, partial curve].

With `O=S(=O)(Nc1ccc(Cl)cc1)c1ccc2c(c1)CCO2` as the compound, how does the Potency read?
The Potency was inconclusive: 39.8 µM [inhibitor, single point].

Which Potency does the source give for `Cc1ccc(-c2nc(N)sc2CC(=O)OCC(=O)N2C(C)CCCC2C)cc1` (centres undefined) here?
The Potency was inconclusive: 22.4 µM [inhibitor, partial curve].

How did the Potency turn out when `COc1ccccc1NC(=O)Nc1ccc(-n2ccc(C(F)(F)F)n2)cc1` was run?
Its Potency is inconclusive: 35.5 µM [inhibitor, partial curve].

How did the Potency turn out when `O=C(CN1CCN(Cc2ccc(F)cc2)C1=O)NCc1ccccc1` was run?
Its Potency is “inactive”.

With `CCn1c(N2CCC(Cc3ccccc3)CC2)nc2c1c(=O)[nH]c(=O)n2C` as the compound, how does the Potency read?
The Potency was inconclusive: 31.6 µM [inhibitor, partial curve].

`COc1ccccc1OCc1cc(C(=O)N2CC3C[C@@H]4CC2C[C@H](C3)C4)no1` was tested. Which Potency did it give?
Its Potency is inconclusive: 50.1 µM [inhibitor, single point].

With `CCN(CC)c1ccc(/C=N/Nc2nn[nH]n2)cc1` as the compound, how does the Potency read?
The Potency was “inactive”.

With `O=C(Cn1c2[n+](c3ccc(C(F)(F)F)cc31)CCCCC2)c1cccc([N+](=O)[O-])c1` as the compound, how does the Potency read?
The Potency was “inactive”.

For `CCOC(=O)C1CCCN(C(=O)c2cc(-c3ccc(C)cc3)on2)C1` (centres undefined), which Potency is on record?
Its Potency is inconclusive: 50.1 µM [inhibitor, single point].

For `O=C(c1cccc2ccccc12)N1CCC(N2CCN(c3ccccc3)CC2)CC1`, which Potency is on record?
Its Potency is inconclusive: 28.2 µM [inhibitor, single point].

With `Cc1cccc(NC(=O)CSc2nc3ccccc3c3nc(CCn4cncc4C)nn23)c1` as the compound, how does the Potency read?
The Potency was inconclusive: 35.5 µM [inhibitor, single point].

With `CCOc1cc(/C=C2\C(=N)N3N=C(C)SC3=NC2=O)ccc1OCCOc1cccc(OC)c1` as the compound, how does the Potency read?
The Potency was inconclusive: 44.7 µM [inhibitor, single point].

Which Potency does the source give for `O=C(CNC(=O)c1ccccc1)N/N=C/c1cc(Br)ccc1O` here?
Its Potency is “inactive”.

For `O=S(=O)(NCc1cccs1)c1ccc(Cl)s1`, which Potency is on record?
Its Potency is inconclusive: 28.2 µM [inhibitor, partial curve].

Which Potency does the source give for `COc1cc(/C=N\NC(=O)OC(C)(C)C)ccc1OC(=O)c1ccco1` here?
Its Potency is inconclusive: 35.5 µM [inhibitor, single point].

Which Potency does the source give for `Cc1cc(NC(=O)CCc2ccccc2)c([N+](=O)[O-])cc1C` here?
The Potency was inconclusive: 44.7 µM [inhibitor, single point].

How did the Potency turn out when `O=C1CN(C(=O)c2ccco2)C(c2ccccc2)c2cc(Cl)ccc2N1` (centres undefined) was run?
The Potency was inconclusive: 50.1 µM [inhibitor, single point].

For `O=C(CNC(=O)c1ccccc1)N/N=C/c1ccc([N+](=O)[O-])s1`, which Potency is on record?
The Potency was inconclusive: 5.62 µM [inhibitor, full curve].

With `CC(=O)c1cc(CC(=O)N2CCc3c([nH]c4ccccc34)C2c2ccccn2)cs1` (centres undefined) as the compound, how does the Potency read?
The Potency was inconclusive: 39.8 µM [inhibitor, partial curve].

How did the Potency turn out when `COc1cc(C(=O)Nc2scc(-c3ccc(Br)cc3)c2C(=O)O)cc(OC)c1OC` was run?
Its Potency is “inactive”.

`CCc1ccccc1NC(=O)/C(C#N)=C\c1ccc(Sc2ccccc2)o1` was tested. Which Potency did it give?
The Potency was inconclusive: 35.5 µM [inhibitor, partial curve].

How did the Potency turn out when `CC1CCCCN1S(=O)(=O)c1ccc2[nH]c(=O)cc(C(=O)NCCc3ccc(Cl)cc3)c2c1` (centres undefined) was run?
The Potency was inconclusive: 14.1 µM [inhibitor, partial curve].

With `O=[N+]([O-])c1ccc(C2=NN(CCO)C(=Nc3ccc(OC(F)(F)F)cc3)SC2)cc1` as the compound, how does the Potency read?
The Potency was inconclusive: 44.7 µM [inhibitor, single point].

Which Potency does the source give for `CCOc1ccc(S(=O)(=O)N2CCOCC2)cc1NC(=O)CSCC(=O)Nc1ccc(C)cc1` here?
Its Potency is inconclusive: 25.1 µM [inhibitor, single point].

For `CC(=O)Nc1ccc(S(=O)(=O)NCc2ccc3c(c2)cc(C)n3C)cc1`, which Potency is on record?
Its Potency is inconclusive: 44.7 µM [inhibitor, single point].

With `Cc1cccc(N=C2Sc3nc4c(C)c(C)ccc4cc3CN2CCN2CCOCC2)c1` as the compound, how does the Potency read?
The Potency was inconclusive: 35.5 µM [inhibitor, partial curve].

How did the Potency turn out when `Clc1ccc(COc2cccc(CNCc3ccncc3)c2)cc1` was run?
Its Potency is inconclusive: 31.6 µM [inhibitor, partial curve].

For `CCN(CC)S(=O)(=O)c1ccc(OC(C)C)c(N)c1`, which Potency is on record?
Its Potency is inconclusive: 25.1 µM [inhibitor, partial curve].

`Cc1ccccc1-n1nc2c(c1NC(=O)C(C)C)CS(=O)(=O)C2` was tested. Which Potency did it give?
Its Potency is “inactive”.

Which Potency does the source give for `CC(=O)Nc1c(C(=O)Nc2ccccc2F)oc2ccccc12` here?
The Potency was “inactive”.
